The values that follow come from the supplement of paper PMC3656093.

The structures appear in SMILES notation. ± gives the standard deviation of the averaged measurements. In all, about 1,900 compounds were measured (“CD40L-induced NF-kB luciferase activity, plate-corrected, relative to DMSO (0) and IKK inhibitor VII (-100) controls”: median about 0.032, lowest 2% from about -26 on). The list shows a part of the results.

In this assay the test system is BL2-NFkB-Luc. Nature of the assay: CD40L-induced NF-kB luciferase activity, plate-corrected, relative to DMSO (0) and IKK inhibitor VII (-100) controls (% normalized activity); higher = more NF-kB reporter activity (less inhibition). As to conditions: 9.4 µM; stimulus: tCD40L 64 ng/ml; 4.5 h. The procedure: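 BL2 B cells with a stable NF-kB response-element luciferase reporter (BL2-NFkB-Luc), 384-well. Cells were pre-incubated with compound at 9.4 uM for 1 h at 37 C, then stimulated with 64 ng/ml trimerized CD40L for 4.5 h; luciferase was read with Steady-Glo. Signal was normalised per plate in Genedata (median DMSO neutral control = 0, median IKK inhibitor VII at 50 uM = -100) with Assay Median plate-pattern correction; duplicate plates.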
Consider `CCOC(=O)C(=O)Nc1ccc(Oc2ccccc2)cc1`, for which the “CD40L-induced NF-kB luciferase activity” value was 0.906 ± 0.051. To `Fc1ccc(C(c2ccc(F)cc2)N2CCN(C/C=C/c3ccccc3)CC2)cc1` belongs -3.89 ± 5.2; to `COc1ccc(CCN(C)CCCC(C#N)(c2ccc(OC)c(OC)c2)C(C)C)cc1OC` (stereo unspecified), -0.19 ± 0.34.

For `COC(=O)CN1C(=S)N(c2ccc(F)cc2)C(=O)C1CC(=O)Nc1ccccc1` (stereo unspecified), the “CD40L-induced NF-kB luciferase activity” value came out at 0.435 ± 0.71.

Regarding `CCCc1cc(=O)[nH]c(=S)[nH]1`, the “CD40L-induced NF-kB luciferase activity” value was -2.77 ± 6.7.

For the molecule `O=C(NC1CC1)C1CCN(C2CCN(C(=O)Cc3ccc(F)cc3)CC2)CC1`, the “CD40L-induced NF-kB luciferase activity” value was -4.25 ± 1.5.

For `Nc1cccc2nc3ccccc3cc12`, the “CD40L-induced NF-kB luciferase activity” value was found to be 349 ± 14. To `N/C(=N\OC(=O)c1cccc(Br)c1)c1ccncc1` belongs 2.67 ± 0.79; to `CC(=O)N1CCN(c2ccc(NC(=O)/C=C/c3ccccc3)cc2)CC1`, 3.56 ± 0.14; to `COc1ccc(-c2coc3c(CN4CCOCC4)c(O)ccc3c2=O)cc1`, 10.4 ± 3.6.

Consider `CC(C)N(Cc1nccn1C)C(=O)CC1C(=O)NCCN1Cc1ccccc1C(F)(F)F` (stereo unspecified), for which the “CD40L-induced NF-kB luciferase activity” value worked out at 0.281 ± 5.4. Regarding `C[C@]12CCC(=O)C=C1CC[C@@H]1[C@@H]2[C@@H](O)C[C@@]2(C)[C@H]1CC[C@]2(O)C(=O)CO`, the “CD40L-induced NF-kB luciferase activity” value was -24.3 ± 5.5.

In the case of `O=C(Nc1cccc(C(=O)O)c1)/C(=C\c1ccccc1)NC(=O)c1ccccc1`, the “CD40L-induced NF-kB luciferase activity” value was 1.77 ± 1.9. With `O=C(O)CC(O)C(=O)O` (stereo unspecified), the “CD40L-induced NF-kB luciferase activity” value was 1.11 ± 7.3. For the molecule `CNCCCC1c2ccccc2C=Cc2ccccc21`, the “CD40L-induced NF-kB luciferase activity” value was -1.95 ± 4.2. `CC(C)NC[C@@H](O)c1ccc(O)c(O)c1`: the “CD40L-induced NF-kB luciferase activity” value was -0.798 ± 0.99. To `COC(=O)C1=CN(Cc2cccs2)C=C(C(=O)OC)C1c1cccc(Cl)c1` belongs -5.35 ± 4.1; to `Cc1ccc2[nH]c3c(=O)n(CCc4cnc[nH]4)cnc3c2c1`, 20.4 ± 3.4.

Regarding `CC(=O)[C@H]1CC[C@H]2[C@@H]3CCC4=CC(=O)CC[C@]4(C)[C@H]3CC[C@]12C`, the “CD40L-induced NF-kB luciferase activity” value was -8.04 ± 6. To `CO[C@@H]1O[C@@H]2COC(c3ccccc3)O[C@@H]2[C@@H](OC)[C@@H]1O` (stereo partly specified) belongs 2.35 ± 0.73; to `CC(=O)N1CCN(c2ccc(OC[C@H]3CO[C@](Cn4ccnc4)(c4ccc(Cl)cc4Cl)O3)cc2)CC1`, -8.34 ± 2.5. Consider `COc1ccc(S(N)(=O)=O)cc1C(N)=O`, for which the “CD40L-induced NF-kB luciferase activity” value was -2.45 ± 4.3.

In the case of `O=C(NCc1ccco1)/C(=C\C=C\c1ccccc1)NC(=O)c1ccccc1Br`, the “CD40L-induced NF-kB luciferase activity” value was 1.36 ± 2.9. To `CN(C)CCOC(c1ccccc1)c1ccccc1` belongs 0.0566 ± 0.086. To `CN1CCc2cccc3c2[C@@H]1Cc1ccc(O)c(O)c1-3` belongs 13.7 ± 1.1; to `CN1C2CCC1CC(OC(c1ccccc1)c1ccccc1)C2` (stereo unspecified), -2.73 ± 1.3; to `CSCCC1NC2(C(=O)Nc3ccc(Cl)cc32)[C@@H]2C(=O)N(C3CCCC3)C(=O)[C@H]12` (stereo partly specified), 5.07 ± 2.4. To `COc1ccc(C2NC(C(=O)O)Cc3c2[nH]c2ccccc32)cc1CN1CCN(c2ccc(F)cc2)CC1` (stereo unspecified) belongs -1.86 ± 2.1. Consider `CCCN(CCC)S(=O)(=O)c1ccc(C(=O)O)cc1`, for which the “CD40L-induced NF-kB luciferase activity” value is -9.88 ± 2.7.

In the case of `COc1cccc(OC)c1C(=O)Nc1nc2ccc([N+](=O)[O-])cc2s1`, the “CD40L-induced NF-kB luciferase activity” value worked out at 3.34 ± 5.3. To `C[C@]12CC[C@@H]3c4ccc(O)cc4CC[C@H]3[C@@H]1CC[C@@H]2O` belongs -1.7 ± 2.8; to `CC(NC(=O)OCc1ccccc1)C(=O)N1CC(O)CC1C(=O)O` (stereo unspecified), 2.65 ± 0.093. To `Cn1c(=O)oc2cc(S(=O)(=O)N3CCc4ccccc4C3)ccc21` belongs 2.87 ± 1.3; to `Clc1ccc(CSC(Cn2ccnc2)c2ccc(Cl)cc2Cl)cc1` (stereo unspecified), 1.98 ± 3.8; to `CC(NC(=O)c1ccc(N2CCNCC2)c([N+](=O)[O-])c1)C12CC3CC(CC(C3)C1)C2` (stereo unspecified), 4.61 ± 5.2. To `CC1(C)C(=O)OC(c2cccs2)C2(CCCCC2)C1=O` (stereo unspecified) belongs -2.53 ± 2.6. With `CN(C)CCN(Cc1ccccc1)c1ccccn1`, the “CD40L-induced NF-kB luciferase activity” value was -4.72 ± 1. To `COc1cccc2c(=O)c3ccccc3oc12` belongs 58 ± 9.2; to `C=CCN1C(=O)c2oc3ccccc3c(=O)c2C1c1ccc(O)c(OC)c1` (stereo unspecified), -0.791 ± 0.32. To `O=c1cnn([C@@H]2O[C@H](CO)[C@@H](O)[C@H]2O)c(=O)[nH]1` belongs 10.5 ± 4.8; to `COc1ccc(CC(=O)N2CC3(C)CC2CC(C)(C)C3)cc1OC` (stereo unspecified), 0.646 ± 2.2; to `CC1=CC(C)(C)N2C(=O)C3(NCCc4c3[nH]c3ccccc43)c3cc(C)cc1c32` (stereo unspecified), 1.81 ± 1.6.

In the case of `O=C(/C=C/c1ccco1)NCc1ccc2c(c1)OCO2`, the “CD40L-induced NF-kB luciferase activity” value was -1 ± 5.2. To `O=C(Nc1ccc(Cl)cn1)Nc1ccccc1Cl` belongs 38.1 ± 2.5.

For `O=C(O)/C=C/c1ccc(O)c(O)c1`, the “CD40L-induced NF-kB luciferase activity” value is -4.83 ± 0.88.

On to `O=C(/C=C/c1ccco1)N1CCN(c2ccccc2)CC1`, for which the “CD40L-induced NF-kB luciferase activity” value amounted to 6.71 ± 0.18. To `COc1cc2c(cc1OC)C(=S)NC(C)(C)C2` belongs -9.01 ± 2.9; to `COc1ccc(C2NC(=O)c3ccccc3N2)cc1OC` (stereo unspecified), 37.3 ± 2.5; to `CN1C(=O)C(O)(CC(=O)c2ccccc2O)c2cc(Br)ccc21` (stereo unspecified), 2.73 ± 4.5. To `CC(=O)OC[C@H]1O[C@@H](n2ncc(=O)[nH]c2=O)[C@H](OC(C)=O)[C@@H]1OC(C)=O` belongs -0.15 ± 22; to `Fc1ccc(NC(=S)Nc2ccccc2Cl)cc1`, 3.06 ± 3.4; to `O=C(O)C1Sc2[nH]c(=O)sc2C2c3ccc(O)cc3OC(=O)C12` (stereo unspecified), -3.23 ± 3.2. To `NS(=O)(=O)c1ccc(CNC(=O)c2cc(-c3ccccc3)nc3ccccc23)cc1` belongs -6.99 ± 3.5; to `COc1ccc(C(=O)Oc2ccc3c(C)cc(=O)oc3c2C(C)=O)cc1`, 19 ± 11; to `COc1cc(OC)c(C2C(C#N)=C(N)OC3=C2C(=O)CC(C)(C)C3)cc1OC` (stereo unspecified), -6.09 ± 9.2. Consider `COc1cc(C(=O)NCCCCCC(=O)O)cc(OC)c1OC`, for which the “CD40L-induced NF-kB luciferase activity” value is 0.0588 ± 0.9.
